Measured values taken from PMC12040169 (PLOS Biology, 2025).
This is one part of the list.

The compounds below were run on T1, C. trachomatis L2/434/Bu expressing GFP (CTL2-GFP). Conditions: total inclusion area; 28.5 h, 10 µM; inhibitor.
T1 construct: L2/434/Bu GFP intracellular growth in HeLa cells
Design: species or system HeLa; C. trachomatis total inclusion area by high-content imaging, normalised to DMSO
Procedure, shortened: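 Post-fluorescence-read fixation, DNA staining with Hoechst and high-content imaging; GFP inclusion area and number per well, and nuclei counts, used as proxies for bacterial growth and host viability.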
In the case of `Cc1cc(-c2nccnc2N2CCN(CCN(C)C)CC2)cc(C)c1O` [CBK037184], the “% of control remaining” value is reported as 104.101.
In the case of `CCCCSc1nc(N)cc(N2CCN3C(=O)CN(C)C(=O)C3C2)n1` (stereo not drawn) [CBK306940], the “% of control remaining” value is reported as 90.8226.
`CCn1c(SCC(=O)Nc2cc(C)ccc2F)nnc1-c1ccccc1O` [CBK269532] was tested, and the “% of control remaining” value was 79.5956.
With `O=[N+]([O-])c1ccc(S(=O)(=O)N2CCC3(CC2)OCCO3)cc1` [CBK269303] the “% of control remaining” value was 63.02.
`O=C(CN(c1ccccc1)S(=O)(=O)c1ccccc1[N+](=O)[O-])Nc1ccc(I)cc1` [CBK263755] was tested, and the “% of control remaining” value was 76.0579.
For `Cc1cc(C)c(NC(=O)CSCc2cc(O)[nH]n2)c(Cl)c1` [CBK268302], the “% of control remaining” value was 89.628.
In the case of `CCC(CO)Nc1nccnc1-c1ccc(CO)cc1` (stereo not drawn) [CBK036607], the “% of control remaining” value is reported as 112.318.
In the case of `CC1CCN(C(=O)Cn2c(=O)n(C(C)C)c3ncccc32)CC1` [CBK283698], the “% of control remaining” value is reported as 93.1705.
For `COc1ccc(Nc2cc(-c3ccccc3OC)ncn2)cn1` [CBK037176], the “% of control remaining” value was 139.404.
With `COc1ccc(-c2cc(C(F)(F)F)nc(SCC(=O)N3CCN(C)CC3)n2)cc1OC` [CBK266194] the “% of control remaining” value was 111.811.
With `CC(NC(=O)CCc1cnn(C)c1)c1cccc(-n2ccnc2)c1` (stereo not drawn) [CBK306139] the “% of control remaining” value was 52.3191.
For `O=C(O)CC1C(=O)NCCN1CCCc1ccccc1` (stereo not drawn) [CBK287176], the “% of control remaining” value was 63.2971.
`Cc1ccc(-n2ncc(C(=O)N3CCc4ccccc4C3)c2NC(=O)c2ccco2)cc1C` [CBK267207] was tested, and the “% of control remaining” value was 106.566.
`O=C(Nc1ccc(N2CCN(Cc3ccccc3)CC2)cc1)c1ccc(-c2ccccc2)cc1` [CBK268622] was tested, and the “% of control remaining” value was 82.2174.
With `CCOC(=O)CNS(=O)(=O)Cc1ccccc1[N+](=O)[O-]` [CBK034439] the “% of control remaining” value was 90.0105.
With `Cc1cc(C)c(S(=O)(=O)Nc2ccccc2C(=O)NCc2ccco2)c(C)c1` [CBK266382] the “% of control remaining” value was 109.714.
For `CCc1c(C)nc2ccccc2c1[S+]([O-])CCC(=O)OC` (stereo not drawn) [CBK155467T], the “% of control remaining” value was 85.0106.
With `CC(O)(c1ccncc1)c1nccs1` (stereo not drawn) [CBK281504] the “% of control remaining” value was 87.8533.
With `COc1cc(C2NC(=S)NC(c3ccccc3)=C2C(=O)c2ccccc2)cc(I)c1OCCO` (stereo not drawn) [CBK267485] the “% of control remaining” value was 91.5815.
For `O=C(CCn1c(C(F)F)cc2cccnc21)NCC1CCCO1` (stereo not drawn) [CBK282165], the “% of control remaining” value was 91.8889.
With `CC1(C)Cc2nc3nc(SCC(=O)c4ccc(Br)cc4)n(-c4ccccc4)c(=O)c3cc2CO1` [CBK263310] the “% of control remaining” value was 40.9487.
`COCC(=O)Nc1c[nH]nc1C1CCCN(c2cccc(F)c2C#N)C1` (stereo not drawn) [CBK305395] was tested, and the “% of control remaining” value was 88.4174.
In the case of `O=C(CC[C@@H]1CNC(=O)[C@@H]2C[C@H](NC(=O)c3ccco3)CN12)Nc1ccccc1` [CBK289007], the “% of control remaining” value is reported as 71.3601.
For `O=C(c1n[nH]c2ccccc12)N1CCc2ccccc2C1` [CBK200330], the “% of control remaining” value was 100.707.
In the case of `CCN(CC)CCOc1c(C)cc(Cl)cc1C` [CBK262219], the “% of control remaining” value is reported as 112.36.
For `CCn1cnc2cc(NC(=O)C3CC4C=CC3C43CC3)ccc21` (stereo not drawn) [CBK281384], the “% of control remaining” value was 91.6471.
In the case of `CC(C)c1ccc(S(=O)(=O)Nc2cccnc2)cc1` [CBK043884], the “% of control remaining” value is reported as 59.9559.
`O=C1C=CC2=C3Oc4c(ccc5cc(O)ccc45)C(c4ccccc4C(=O)O)C3C=CC2=C1` (stereo not drawn) [CBK278169N] was tested, and the “% of control remaining” value was 89.1436.
In the case of `Cc1ccc(-n2cccn2)cc1S(=O)(=O)NCCN1CCCCC1CO` (stereo not drawn) [CBK307163], the “% of control remaining” value is reported as 49.385.
With `CCCc1ccc(OCC(=O)Nc2ccccc2C(N)=O)cc1` [CBK263103] the “% of control remaining” value was 83.1852.
With `Cn1c(/C(C#N)=C\c2ccc(-c3ccc(S(N)(=O)=O)cc3)o2)nc2ccccc21` [CBK266380] the “% of control remaining” value was 55.3019.
For `Cc1c(C)n(CC(O)CNCc2ccco2)c2ccccc12` (stereo not drawn) [CBK263970G], the “% of control remaining” value was 77.485.
With `C=CCn1c2cc(C)sc2c2cnn(CC(=O)OC)c(=O)c21` [CBK284166] the “% of control remaining” value was 85.8148.
`CC(=O)c1c2c(c(N3CCN(C#N)CC3)[nH]c1=S)CC(C)(C)OC2` [CBK018622] was tested, and the “% of control remaining” value was 92.0797.
With `Cc1nn2c(-c3ccncc3)ccnc2c1-c1ccccc1` [CBK288548] the “% of control remaining” value was 76.588.
In the case of `COc1ccccc1NC(=O)C(=O)N/N=C/c1ccc(C(=O)O)cc1` [CBK262148], the “% of control remaining” value is reported as 103.241.
`CCOC(=O)C1CCN(C(=O)Nc2cc(C)on2)CC1` [CBK306280] was tested, and the “% of control remaining” value was 63.5657.
For `O=C(/C=C/c1ccc(F)cc1)NCCc1ccc(S(=O)(=O)N2CCCC2)cc1` [CBK265227], the “% of control remaining” value was 116.087.
With `CC(=O)N1CC(C(=O)Nc2ncc(-c3ccccc3)n2C)C1` [CBK281373] the “% of control remaining” value was 90.8555.
For `Nc1ncnc(Nc2ccc(Nc3ccccc3)cc2)c1[N+](=O)[O-]` [CBK267347], the “% of control remaining” value was 132.802.
For `Cn1c(CO)nnc1[C@H]1C[C@@H](NC(=O)COc2ccc(Cl)c(Cl)c2)C1` [CBK306667], the “% of control remaining” value was 89.9828.
In the case of `CCc1nnsc1C(=O)Nc1nn(C)c2cccc(N3CCOCC3)c12` [CBK307671], the “% of control remaining” value is reported as 78.4733.
With `O=C(Nc1ccc(N2CCN(Cc3ccccc3F)CC2)cc1)c1cc2ccccc2o1` [CBK267210] the “% of control remaining” value was 115.458.
`Cc1cc(S(=O)(=O)NCc2cc(F)c(F)c(F)c2)c(C)cc1Cl` [CBK043813] was tested, and the “% of control remaining” value was 100.665.
For `CCNC(=O)Nc1ccc2ccc(-c3ccsc3)nc2n1` [CBK070699], the “% of control remaining” value was 60.0014.
In the case of `Cc1nc([N+](=O)[O-])c(NCCO)n1Cc1ccccc1` [CBK261422], the “% of control remaining” value is reported as 112.176.
For `N#Cc1nc(=O)[nH]cc1N` [CBK021411], the “% of control remaining” value was 81.9913.
In the case of `Cn1cnnc1C1CCN(C(=O)CC2OCCc3sccc32)CC1` (stereo not drawn) [CBK304912], the “% of control remaining” value is reported as 79.5943.
In the case of `Cc1ccc(N(CC(=O)Nc2cccc3ccccc23)S(=O)(=O)c2ccc(F)cc2)cc1` [CBK262707], the “% of control remaining” value is reported as 86.4915.
In the case of `CCOC(=O)c1c(NC(=O)CSc2n[nH]c(N)n2)sc2c1CCCCC2` [CBK266569], the “% of control remaining” value is reported as 103.859.
With `CN(CC(=O)Nc1cccc(Cl)c1)S(=O)(=O)c1ccc2ccccc2c1` [CBK266746] the “% of control remaining” value was 114.938.
In the case of `COC(=O)c1c(C)n(CCCNc2ccc([N+](=O)[O-])cc2Cl)c2ccc(O)cc12` [CBK268363], the “% of control remaining” value is reported as 111.452.
In the case of `CC(=O)Nc1ccc(NC(=O)COc2c(C)cc(Br)cc2C)cc1` [CBK267321], the “% of control remaining” value is reported as 110.57.
With `COC(=O)[C@H]1CN(C(=O)CN2CCCC2=O)C[C@@H]1c1ccccc1F` [CBK283518] the “% of control remaining” value was 113.759.
With `O=C(O)c1ccc2c(c1)C(=O)N(c1ccc(C3(c4ccc(N5C(=O)c6ccc(C(=O)O)cc6C5=O)cc4)c4ccccc4-c4ccccc43)cc1)C2=O` [CBK261195] the “% of control remaining” value was 90.5261.
`CCn1c(SCC(=O)NC(=O)NC2CCCCC2)nc2ccccc21` [CBK306037] was tested, and the “% of control remaining” value was 99.9258.
`c1csc(-c2cncc(NCCc3ccncc3)n2)c1` [CBK065797] was tested, and the “% of control remaining” value was 98.6988.
`CCn1cc(NC(=O)CC(C)(O)c2ccccc2)ccc1=O` (stereo not drawn) [CBK304507] was tested, and the “% of control remaining” value was 25.3599.
With `O=C(O)CN(c1ccc([N+](=O)[O-])cc1)S(=O)(=O)c1ccccc1` [CBK263782] the “% of control remaining” value was 97.9272.
In the case of `COCC(O)CN(C)c1nc(-c2ccncc2)nc2ccccc12` (stereo not drawn) [CBK305170], the “% of control remaining” value is reported as 72.3703.
`CC(=O)N1CCN([C@H]2[C@@H]3OC[C@@H](O3)[C@@H](NC(=O)NC3CCCCC3)[C@@H]2O)CC1` [CBK288810] was tested, and the “% of control remaining” value was 118.922.
For `CC(C)c1nnc(NC(=O)CC2CCN(C(=O)C3(c4ccccc4)CCCC3)CC2)s1` [CBK285905], the “% of control remaining” value was 103.356.
In the case of `COC(=O)c1cccc(OCCn2c(=O)c(C#N)cn(C3CC3)c2=O)c1` [CBK305990], the “% of control remaining” value is reported as 89.3216.
With `O=C(Nc1cc(Oc2ccc(F)cc2)cc(Oc2cccnc2)c1)c1nn2c(C(F)(F)F)cc(-c3cccs3)nc2c1Cl` [CBK262568] the “% of control remaining” value was 111.816.
In the case of `CCC1Oc2ccc(C(O)c3ccco3)cc2N(Cc2cccc(OC)c2)C1=O` (stereo not drawn) [CBK286190], the “% of control remaining” value is reported as 106.39.
For `OCCN(CCO)c1nccnc1-c1ccccc1F` [CBK036610], the “% of control remaining” value was 118.444.
For `Cc1cccc(NC(=O)C(Cc2ccccc2)C(=O)Nc2cccc(C)c2)c1` [CBK266899], the “% of control remaining” value was 106.543.
For `Cc1nc2ccccc2c(C(=O)O)c1-c1ccccc1` [CBK274187], the “% of control remaining” value was 95.2421.
With `COc1ccc(-c2cn[nH]c2-c2ccc(OCCN3CCOCC3)cc2O)cc1` [CBK288112] the “% of control remaining” value was 105.057.
For `CCc1nn(CC(=O)N(CC)CC)c(=O)c2cc3sccc3n12` [CBK284054], the “% of control remaining” value was 87.1827.
For `FC(F)(F)c1cccc(SCc2ccc(Cl)cc2)n1` [CBK107197], the “% of control remaining” value was 77.8302.
`COCCNc1cc(-c2cccc(F)c2C(N)=O)c2cc[nH]c2n1` [CBK307682] was tested, and the “% of control remaining” value was 71.9132.
With `CN(C)C(=O)CO[C@@H]1CO[C@H]2[C@@H]1OC[C@@H]2Nc1nccc(-c2cccc(F)c2)n1` [CBK289533] the “% of control remaining” value was 89.3832.
For `Oc1ccc(Oc2ccc(Oc3ccc(O)cc3)cc2)cc1` [CBK033968], the “% of control remaining” value was 94.4372.
`CC1(C)CC(CC(=O)NN)(c2ccccc2)CCO1` (stereo not drawn) [CBK261358C] was tested, and the “% of control remaining” value was 97.6291.
For `Cc1ccc(S(=O)(=O)NCC(=O)Nc2cnc(-c3cccc(C)c3)c(-c3ccc(N)cc3)n2)cc1` [CBK037600], the “% of control remaining” value was 105.877.
`O=C(CCc1ccc(S(=O)(=O)NC2CC2)cc1)N1CCCC1c1ccncc1` (stereo not drawn) [CBK296673] was tested, and the “% of control remaining” value was 101.694.
`CCCCc1c(O)nc(SCC(=O)NCC2CCCO2)[nH]c1=O` (stereo not drawn) [CBK073281] was tested, and the “% of control remaining” value was 88.4276.
